The results in this text go back to paper PMC9343540.

The chains behind the UniProt entries cited, without tags or fusion partners.
UniProt A2AWL7: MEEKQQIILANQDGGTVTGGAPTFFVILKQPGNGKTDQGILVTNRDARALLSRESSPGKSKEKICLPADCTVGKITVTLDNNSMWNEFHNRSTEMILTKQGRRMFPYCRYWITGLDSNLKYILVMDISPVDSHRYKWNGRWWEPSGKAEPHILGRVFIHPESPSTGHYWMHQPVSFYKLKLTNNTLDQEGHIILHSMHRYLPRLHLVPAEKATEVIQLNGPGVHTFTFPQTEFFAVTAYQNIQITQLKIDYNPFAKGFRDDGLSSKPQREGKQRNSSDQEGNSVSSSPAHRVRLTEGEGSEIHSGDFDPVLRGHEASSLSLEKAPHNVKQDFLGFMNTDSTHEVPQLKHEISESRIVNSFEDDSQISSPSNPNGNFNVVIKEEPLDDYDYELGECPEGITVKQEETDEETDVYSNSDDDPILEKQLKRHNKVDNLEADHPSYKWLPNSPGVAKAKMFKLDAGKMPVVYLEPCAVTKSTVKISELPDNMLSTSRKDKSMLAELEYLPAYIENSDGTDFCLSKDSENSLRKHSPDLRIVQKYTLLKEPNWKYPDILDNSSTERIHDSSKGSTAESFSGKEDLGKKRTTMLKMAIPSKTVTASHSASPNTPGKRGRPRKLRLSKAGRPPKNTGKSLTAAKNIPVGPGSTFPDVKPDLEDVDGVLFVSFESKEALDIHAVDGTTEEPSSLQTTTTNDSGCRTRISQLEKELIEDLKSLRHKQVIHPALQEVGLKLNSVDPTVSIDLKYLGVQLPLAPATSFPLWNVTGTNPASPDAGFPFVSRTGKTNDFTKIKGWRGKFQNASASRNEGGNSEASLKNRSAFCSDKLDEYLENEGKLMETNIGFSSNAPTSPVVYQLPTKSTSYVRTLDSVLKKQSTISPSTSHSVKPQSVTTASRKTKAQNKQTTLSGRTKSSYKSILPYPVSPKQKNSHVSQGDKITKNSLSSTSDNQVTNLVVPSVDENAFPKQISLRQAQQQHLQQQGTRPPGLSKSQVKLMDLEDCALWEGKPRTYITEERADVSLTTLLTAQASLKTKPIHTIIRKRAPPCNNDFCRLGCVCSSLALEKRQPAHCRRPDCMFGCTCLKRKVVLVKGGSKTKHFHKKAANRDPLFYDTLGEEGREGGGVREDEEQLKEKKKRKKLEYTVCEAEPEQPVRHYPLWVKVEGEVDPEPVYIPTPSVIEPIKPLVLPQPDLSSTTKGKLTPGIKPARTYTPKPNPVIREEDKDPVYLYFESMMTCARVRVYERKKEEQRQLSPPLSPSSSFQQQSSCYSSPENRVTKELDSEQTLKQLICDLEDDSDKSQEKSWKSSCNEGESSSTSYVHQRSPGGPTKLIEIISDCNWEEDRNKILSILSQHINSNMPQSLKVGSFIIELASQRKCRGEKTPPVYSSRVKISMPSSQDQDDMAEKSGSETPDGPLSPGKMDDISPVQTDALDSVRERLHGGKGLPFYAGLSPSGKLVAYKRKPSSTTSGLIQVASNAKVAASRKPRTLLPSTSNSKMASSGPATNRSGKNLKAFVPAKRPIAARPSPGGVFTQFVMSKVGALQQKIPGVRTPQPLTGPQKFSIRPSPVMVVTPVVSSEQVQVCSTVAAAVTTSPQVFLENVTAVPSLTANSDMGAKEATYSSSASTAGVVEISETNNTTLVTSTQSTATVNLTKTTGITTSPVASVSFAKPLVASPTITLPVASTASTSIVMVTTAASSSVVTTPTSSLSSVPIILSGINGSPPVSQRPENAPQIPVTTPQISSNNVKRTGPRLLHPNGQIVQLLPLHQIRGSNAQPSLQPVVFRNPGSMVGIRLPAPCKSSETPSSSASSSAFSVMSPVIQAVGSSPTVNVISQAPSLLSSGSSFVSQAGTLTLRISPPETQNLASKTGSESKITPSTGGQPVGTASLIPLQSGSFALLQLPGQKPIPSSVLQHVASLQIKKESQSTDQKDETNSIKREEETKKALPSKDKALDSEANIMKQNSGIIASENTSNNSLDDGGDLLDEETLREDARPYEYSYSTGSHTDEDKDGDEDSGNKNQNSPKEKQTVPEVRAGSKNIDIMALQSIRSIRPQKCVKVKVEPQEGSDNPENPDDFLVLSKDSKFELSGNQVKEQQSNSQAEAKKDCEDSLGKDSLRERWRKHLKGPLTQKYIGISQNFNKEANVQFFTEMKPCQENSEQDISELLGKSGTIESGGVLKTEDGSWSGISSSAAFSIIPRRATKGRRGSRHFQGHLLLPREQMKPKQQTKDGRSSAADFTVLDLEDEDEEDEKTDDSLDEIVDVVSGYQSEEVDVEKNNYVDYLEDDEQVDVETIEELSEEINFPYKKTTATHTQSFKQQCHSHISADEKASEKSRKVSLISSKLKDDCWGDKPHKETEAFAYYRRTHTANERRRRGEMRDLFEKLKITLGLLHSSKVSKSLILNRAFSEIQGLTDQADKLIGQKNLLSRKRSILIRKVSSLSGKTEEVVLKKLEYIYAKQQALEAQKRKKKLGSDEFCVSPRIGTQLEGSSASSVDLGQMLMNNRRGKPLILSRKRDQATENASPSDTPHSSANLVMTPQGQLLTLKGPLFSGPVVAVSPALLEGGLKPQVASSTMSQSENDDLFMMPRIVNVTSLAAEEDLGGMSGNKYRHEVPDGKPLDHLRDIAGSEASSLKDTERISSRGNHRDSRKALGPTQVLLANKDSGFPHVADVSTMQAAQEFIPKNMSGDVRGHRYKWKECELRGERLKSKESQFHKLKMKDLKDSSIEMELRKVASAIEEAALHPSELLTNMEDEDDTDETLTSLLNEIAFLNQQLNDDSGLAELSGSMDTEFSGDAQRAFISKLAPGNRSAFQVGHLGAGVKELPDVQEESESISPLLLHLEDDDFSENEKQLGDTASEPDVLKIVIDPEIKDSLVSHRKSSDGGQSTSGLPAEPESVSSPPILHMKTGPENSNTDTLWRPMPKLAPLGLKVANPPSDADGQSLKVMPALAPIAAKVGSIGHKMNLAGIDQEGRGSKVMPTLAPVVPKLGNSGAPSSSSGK
UniProt Q3UK78: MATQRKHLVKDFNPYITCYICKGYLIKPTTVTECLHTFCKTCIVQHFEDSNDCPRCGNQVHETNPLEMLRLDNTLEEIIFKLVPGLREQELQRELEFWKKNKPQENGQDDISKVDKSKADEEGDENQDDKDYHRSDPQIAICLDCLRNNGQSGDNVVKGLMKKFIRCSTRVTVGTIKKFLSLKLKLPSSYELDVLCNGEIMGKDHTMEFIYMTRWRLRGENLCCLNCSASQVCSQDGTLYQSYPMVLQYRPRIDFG
UniProt Q6PR54: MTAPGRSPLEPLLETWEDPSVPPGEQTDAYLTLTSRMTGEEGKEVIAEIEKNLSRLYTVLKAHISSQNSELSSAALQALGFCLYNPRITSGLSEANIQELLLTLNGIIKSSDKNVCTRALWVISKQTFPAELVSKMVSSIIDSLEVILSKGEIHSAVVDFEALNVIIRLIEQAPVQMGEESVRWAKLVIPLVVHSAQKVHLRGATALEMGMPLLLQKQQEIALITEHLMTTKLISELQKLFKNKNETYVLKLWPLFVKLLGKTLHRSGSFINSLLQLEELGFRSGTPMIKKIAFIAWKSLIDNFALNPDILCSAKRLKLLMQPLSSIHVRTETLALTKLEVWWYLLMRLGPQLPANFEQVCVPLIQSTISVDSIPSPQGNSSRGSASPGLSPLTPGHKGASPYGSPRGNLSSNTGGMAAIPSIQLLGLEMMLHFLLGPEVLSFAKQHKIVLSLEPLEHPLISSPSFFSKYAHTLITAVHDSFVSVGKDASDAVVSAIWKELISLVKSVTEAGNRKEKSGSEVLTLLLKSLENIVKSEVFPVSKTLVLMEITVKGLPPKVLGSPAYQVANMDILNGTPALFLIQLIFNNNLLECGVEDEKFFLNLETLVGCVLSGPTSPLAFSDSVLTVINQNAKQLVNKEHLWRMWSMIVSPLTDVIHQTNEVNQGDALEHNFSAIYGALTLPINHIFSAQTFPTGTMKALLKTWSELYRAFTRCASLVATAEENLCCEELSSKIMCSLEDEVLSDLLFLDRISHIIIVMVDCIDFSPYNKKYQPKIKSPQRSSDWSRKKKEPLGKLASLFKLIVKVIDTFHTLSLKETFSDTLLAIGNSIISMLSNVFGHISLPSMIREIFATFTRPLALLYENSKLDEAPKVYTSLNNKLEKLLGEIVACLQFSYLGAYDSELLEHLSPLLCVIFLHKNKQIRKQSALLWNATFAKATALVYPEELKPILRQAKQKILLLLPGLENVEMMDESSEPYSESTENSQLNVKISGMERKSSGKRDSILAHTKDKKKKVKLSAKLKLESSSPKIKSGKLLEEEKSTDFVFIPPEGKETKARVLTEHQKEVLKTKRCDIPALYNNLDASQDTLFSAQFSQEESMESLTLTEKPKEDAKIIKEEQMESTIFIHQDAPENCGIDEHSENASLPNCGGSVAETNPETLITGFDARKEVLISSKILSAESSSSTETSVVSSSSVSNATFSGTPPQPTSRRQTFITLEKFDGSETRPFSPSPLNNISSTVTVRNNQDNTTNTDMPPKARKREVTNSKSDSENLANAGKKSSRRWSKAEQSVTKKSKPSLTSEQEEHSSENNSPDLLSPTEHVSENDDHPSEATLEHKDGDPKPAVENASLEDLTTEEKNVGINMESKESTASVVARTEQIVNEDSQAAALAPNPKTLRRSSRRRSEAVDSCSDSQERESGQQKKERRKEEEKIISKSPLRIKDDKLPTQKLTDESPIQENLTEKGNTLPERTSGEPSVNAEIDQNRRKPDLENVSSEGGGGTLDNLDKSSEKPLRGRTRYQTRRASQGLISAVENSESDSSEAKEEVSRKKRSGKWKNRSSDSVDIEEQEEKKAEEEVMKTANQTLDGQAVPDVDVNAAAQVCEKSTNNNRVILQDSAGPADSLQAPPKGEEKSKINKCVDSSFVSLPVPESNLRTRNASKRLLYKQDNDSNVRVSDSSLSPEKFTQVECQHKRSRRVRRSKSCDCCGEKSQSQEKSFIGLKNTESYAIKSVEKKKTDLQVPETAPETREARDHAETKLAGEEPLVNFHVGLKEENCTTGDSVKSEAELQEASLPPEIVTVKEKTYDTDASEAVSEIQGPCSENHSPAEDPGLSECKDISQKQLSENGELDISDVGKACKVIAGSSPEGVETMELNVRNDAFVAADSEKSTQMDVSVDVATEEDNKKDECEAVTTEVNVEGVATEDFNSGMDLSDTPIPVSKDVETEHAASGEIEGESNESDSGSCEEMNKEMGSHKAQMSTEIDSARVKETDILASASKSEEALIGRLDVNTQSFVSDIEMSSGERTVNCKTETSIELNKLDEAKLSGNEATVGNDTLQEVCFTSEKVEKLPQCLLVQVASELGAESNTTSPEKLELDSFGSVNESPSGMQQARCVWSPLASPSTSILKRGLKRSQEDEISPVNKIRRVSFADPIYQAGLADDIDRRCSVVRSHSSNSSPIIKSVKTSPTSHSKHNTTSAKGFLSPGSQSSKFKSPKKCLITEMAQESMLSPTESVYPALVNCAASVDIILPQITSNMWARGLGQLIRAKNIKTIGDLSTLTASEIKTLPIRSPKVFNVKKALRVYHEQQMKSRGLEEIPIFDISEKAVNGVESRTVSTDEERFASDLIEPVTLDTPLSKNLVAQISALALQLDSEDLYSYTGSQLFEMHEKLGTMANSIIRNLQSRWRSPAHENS
UniProt Q9CQJ4: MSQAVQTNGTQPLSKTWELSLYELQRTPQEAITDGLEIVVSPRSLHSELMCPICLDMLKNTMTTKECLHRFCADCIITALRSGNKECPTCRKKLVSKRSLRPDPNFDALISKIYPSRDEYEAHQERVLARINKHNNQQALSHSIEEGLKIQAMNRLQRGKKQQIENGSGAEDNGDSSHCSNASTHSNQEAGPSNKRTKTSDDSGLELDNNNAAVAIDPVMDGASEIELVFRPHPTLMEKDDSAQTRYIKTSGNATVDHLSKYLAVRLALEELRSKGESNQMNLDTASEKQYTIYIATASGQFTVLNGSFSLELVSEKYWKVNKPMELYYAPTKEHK

No constants are given. Whether binding was seen depends on the method and setting. For part of these data: Binding seen in cells or lysates may run through a third protein. Some results given as binding are weak or reduced against the parent protein; the word gives no strength. For part of these data: Sequences can lack the tags named with a protein.

The target in assay [1] is T1, endogenous Pcgf6 (mESCs) (mouse (endogenous in mESCs)) (UniProt Q99NA9).
T1 sequence: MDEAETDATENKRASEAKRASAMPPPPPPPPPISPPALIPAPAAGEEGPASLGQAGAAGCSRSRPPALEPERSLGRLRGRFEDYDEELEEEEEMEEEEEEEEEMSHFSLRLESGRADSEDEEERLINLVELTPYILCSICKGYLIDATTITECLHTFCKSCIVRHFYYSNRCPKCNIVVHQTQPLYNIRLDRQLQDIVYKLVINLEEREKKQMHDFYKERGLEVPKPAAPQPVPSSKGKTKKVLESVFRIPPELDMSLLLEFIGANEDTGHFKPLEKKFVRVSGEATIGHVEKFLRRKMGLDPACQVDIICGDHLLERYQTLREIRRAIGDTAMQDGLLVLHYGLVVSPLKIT
Briefly: SEC; gel filtration of mESC nuclear extracts (Rif1 WT control and Rif1 CKO) on Superdex 200 increase 10/300 GL in 50 mM Tris pH 8.0, 150 mM NaCl; fractions examined by Western blot. (In general: SEC sorts molecules by how far they enter the pores of the column.)

The target in assay [2] is T2, endogenously HA-tagged Pcgf6 (HA-Pcgf6 KI mESCs) (mouse (endogenous in E14 mESCs)) (UniProt Q99NA9).
T2 sequence: T1 sequence
Briefly: co-IP; endogenous proteins in HA knock-in mESCs (HA-Rif1, HA-Pcgf6, HA-Mga); anti-HA affinity matrix overnight at 4 °C; lysis buffer 50 mM Tris, 150 mM NaCl, 0.5% NP40, 5 mM EDTA, pH 7.5; Western blot; HA-Pcgf6 KI cells also treated with shRNA targeting NT or Rif1.

The target of assay [3] is endogenously HA-tagged Mga (HA-Mga KI mESCs) (mouse (endogenous in E14 mESCs)) (UniProt A2AWL7). The assay is described as above.
A further assay concerns the target T3, Flag-Pcgf4 (UniProt P25916).
T3 sequence: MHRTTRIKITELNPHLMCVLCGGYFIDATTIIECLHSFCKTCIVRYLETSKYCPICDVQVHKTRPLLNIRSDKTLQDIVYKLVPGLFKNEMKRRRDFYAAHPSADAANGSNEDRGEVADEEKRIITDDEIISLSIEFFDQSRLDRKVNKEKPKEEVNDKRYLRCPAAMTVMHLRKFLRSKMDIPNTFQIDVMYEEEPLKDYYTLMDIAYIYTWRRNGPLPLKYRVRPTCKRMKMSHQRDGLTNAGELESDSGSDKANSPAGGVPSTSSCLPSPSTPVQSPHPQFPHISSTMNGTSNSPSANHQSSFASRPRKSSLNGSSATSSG
Briefly: co-IP; HEK293T cells ectopically expressing HA-Rif1 and Flag-tagged Pcgf proteins; anti-Flag M2 affinity gel overnight at 4 °C; lysis buffer 50 mM Tris, 150 mM NaCl, 0.5% NP40, 5 mM EDTA, pH 7.5; Western blot.

The target of another assay is T4, Flag-Pcgf3 (UniProt Q8BTQ0).
T4 sequence: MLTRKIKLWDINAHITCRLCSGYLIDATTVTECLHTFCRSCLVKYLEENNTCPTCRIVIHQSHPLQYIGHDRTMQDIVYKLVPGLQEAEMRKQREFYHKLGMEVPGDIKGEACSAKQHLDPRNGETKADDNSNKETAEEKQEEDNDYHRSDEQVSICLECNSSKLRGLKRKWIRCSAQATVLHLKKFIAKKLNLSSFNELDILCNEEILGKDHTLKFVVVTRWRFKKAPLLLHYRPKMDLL
Described as above.

The target of the next assay is T5, Flag-Pcgf6 (UniProt Q99NA9).
T5 sequence: T1 sequence
The description is as above.

The target of the next assay is T6, Flag-Pcgf1 (UniProt Q8R023).
T6 sequence: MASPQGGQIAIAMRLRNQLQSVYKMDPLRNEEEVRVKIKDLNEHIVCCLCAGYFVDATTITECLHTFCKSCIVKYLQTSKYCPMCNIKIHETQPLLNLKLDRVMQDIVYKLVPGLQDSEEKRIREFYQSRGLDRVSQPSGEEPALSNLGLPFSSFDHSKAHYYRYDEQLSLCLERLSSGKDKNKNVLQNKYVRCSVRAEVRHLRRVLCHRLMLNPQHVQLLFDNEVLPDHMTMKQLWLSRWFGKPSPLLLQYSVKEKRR
The description is as above.

A further assay concerns the target Flag-Pcgf5 (UniProt Q3UK78). Described as above.
A further assay deals with T7, Flag-Pcgf2 (UniProt P23798).
T7 sequence: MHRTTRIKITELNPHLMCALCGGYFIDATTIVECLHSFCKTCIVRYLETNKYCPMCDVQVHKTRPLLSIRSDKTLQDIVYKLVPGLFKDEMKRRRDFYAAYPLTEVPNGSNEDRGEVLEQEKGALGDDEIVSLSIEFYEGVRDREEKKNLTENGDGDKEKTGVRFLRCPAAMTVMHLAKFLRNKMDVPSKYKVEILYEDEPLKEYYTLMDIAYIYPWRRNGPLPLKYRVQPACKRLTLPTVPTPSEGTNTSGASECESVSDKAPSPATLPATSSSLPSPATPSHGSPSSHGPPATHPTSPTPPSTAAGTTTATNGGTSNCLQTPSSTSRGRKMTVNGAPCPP
The description is as above.

The target of assay [4] is endogenously HA-tagged Rif1 (HA-Rif1 KI mESCs) (mouse (endogenous in mESCs)) (UniProt Q6PR54). Briefly: co-IP; endogenous proteins in HA knock-in mESCs (HA-Rif1, HA-Pcgf6, HA-Mga); anti-HA affinity matrix overnight at 4 °C; lysis buffer 50 mM Tris, 150 mM NaCl, 0.5% NP40, 5 mM EDTA, pH 7.5; Western blot; HA-Pcgf6 KI cells also treated with shRNA targeting NT or Rif1. In general terms: Immunoblotting shows a protein as a band on a membrane.

On to “endogenous Rif1 (from UniProt Q6PR54 1-2419)”, for which the binding result in [1], in assay [2] and in [3] was “binds” throughout.

Consider “endogenous RNF2 (mESCs) (from UniProt Q9CQJ4 1-336)”, for which the binding result in [2] was “binds”.

For the molecule “HA-Rif1 (ectopically expressed HA-tagged Rif1) (from UniProt Q6PR54 1-2419)”, the binding entry in the assay with Flag-Pcgf4 is given as “no binding”; in the assay with Flag-Pcgf3 it was “no binding”; with Flag-Pcgf6, “binds”; with Flag-Pcgf1, “no binding”; with Flag-Pcgf5, “no binding”; in the assay with Flag-Pcgf2, “no binding”.

B1: endogenous RYBP (mESCs) (protein, UniProt Q8CCI5 1-228)
chain: MTMGDKKSPTRPKRQAKPAADEGFWDCSVCTFRNSAEAFKCSICDVRKGTSTRKPRINSQLVAQQVAQQYATPPPPKKEKKEKVEKPDKEKPEKDKDISPSVTKKNTNKKTKPKSDILKDPPSEANSIQSANATTKTSETNHTSRPRLKNVDRSTAQQLAVTVGNVTVIITDFKEKTRSSSTSSSTVTSSAGSEQQNQSSSGSESTDKGSSRSSTPKGDMSAVNDESF
Consider B1, for which the binding entry in assay [2] is given as “binds”.

B2: endogenous Pcgf6 (mESCs) (protein, UniProt Q99NA9 1-353)
chain: T1 sequence
Take B2: in [4], the binding entry is “binds”.
